Measured values reported in PubChem BioAssay AID1159614 (National Center for Advancing Translational Sciences (NCATS), 2016).
The campaign covered roughly 45,000 compounds. About 65 (0.1%) were called active. Calls come from the whole dose curve; as a rule, active = well fitted activation curve with a large enough effect; inconclusive = small, poorly fitted or top-dose-only effect; inactive = no such curve, though single readings can be large or run the other way. This is one part of the list.

The compounds below were run against Galactocerebrosidase (Homo sapiens) (UniProt P54803) (assay: A Novel Cell-Based Assay to Identify Small Molecules for B -Galactocerebrosidase). Details: 145M-Twi-hGALC-G270D cells (Twitcher mouse brain line with human GALC G270D), HMU-beta-Gal fluorescence, 48 h; series mostly up to 57.5 µM; activation: at the top concentration.
Method in brief: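 Fluorogenic HMU-b-Gal hydrolysis (0.1 mM final, pH 5.2 citrate-phosphate with 1 mg/mL sodium taurocholate; carbonate stop buffer) measures mutant GALC activity after compound treatment of live 145M-Twi Twitcher brain cells stably carrying human GALC-G270D, with wild-type GALC line alongside; activation sought.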
Note: 0% is about no effect; nearly all actives have a fitted effect of over 65% in size.

UniProt P54803, sequence (P54803 whole entry, looked up): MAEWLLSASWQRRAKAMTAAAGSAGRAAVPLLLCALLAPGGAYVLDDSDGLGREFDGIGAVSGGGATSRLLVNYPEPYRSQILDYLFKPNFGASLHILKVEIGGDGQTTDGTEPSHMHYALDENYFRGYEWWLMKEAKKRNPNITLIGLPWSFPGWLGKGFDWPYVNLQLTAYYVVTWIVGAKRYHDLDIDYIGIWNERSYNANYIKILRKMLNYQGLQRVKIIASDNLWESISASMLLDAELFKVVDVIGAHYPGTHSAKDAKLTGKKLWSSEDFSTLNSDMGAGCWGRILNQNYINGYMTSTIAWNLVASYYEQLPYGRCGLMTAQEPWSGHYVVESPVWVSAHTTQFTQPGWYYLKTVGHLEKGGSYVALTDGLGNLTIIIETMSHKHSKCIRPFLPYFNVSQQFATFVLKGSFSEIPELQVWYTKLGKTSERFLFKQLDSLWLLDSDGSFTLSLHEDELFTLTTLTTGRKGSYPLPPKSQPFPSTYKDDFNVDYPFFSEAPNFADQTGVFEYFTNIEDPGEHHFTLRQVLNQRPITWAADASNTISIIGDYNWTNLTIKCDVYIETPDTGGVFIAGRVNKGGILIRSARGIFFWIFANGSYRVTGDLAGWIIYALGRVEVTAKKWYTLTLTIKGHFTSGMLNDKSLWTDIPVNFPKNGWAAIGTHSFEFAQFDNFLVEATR

Row | SMILES | activation
1 | O=C(COc1ccccc1)NC1CC(=O)N(c2ccc3c(c2)OCCO3)C1 (centres undefined) | inactive: -10.8%
2 | CCOc1ccccc1NC(=O)Cn1c(=O)n(-c2cccc(C)c2)c(=O)c2c1c1cc(OC)ccc1n2C | inactive: 0.887%
3 | Cc1ccc(C)c(N2CCN(C(=O)c3noc4c3CCCCC4)CC2)c1 | inactive: -9.33%
4 | CCOc1ccc(C(=O)c2cn(CC(=O)Nc3ccc(Cl)cc3)c3cc4c(cc3c2=O)OCCO4)cc1 | inactive: -6.64%
5 | Cc1ccccc1Cn1c(CN2CCCC(C)C2)nc2c1c(=O)n(C)c(=O)n2C (centres undefined) | inactive: -2.16%
6 | Cc1ccc(-c2nc(CCNC(=O)C(=O)Nc3ccc(C)cc3C)cs2)cc1 | inactive: -0.592%
7 | Cc1ccc(C)c(-c2[nH]c3c(c2-c2c(-n4cccc4)n(C)c(=O)[nH]c2=O)c(=O)[nH]c(=O)n3C)c1 | inactive: -8.39%
8 | CCN(CC)S(=O)(=O)c1ccc2c(c1)N(CC(=O)N1CCN(c3ccc(F)cc3)CC1)C(=O)CO2 | inactive: -22.3%
9 | CCOc1ccc(CCNC(=O)Cn2nc(-c3ccc(C)cc3)ccc2=O)cc1OCC | inactive: -21.6%
10 | COc1ccc(CNC(=O)c2ccc(CS(=O)(=O)c3ccccc3OC)o2)cc1 | inactive: -5.76%
11 | O=C(CNS(=O)(=O)c1cccs1)N1CCN(c2cccc(C(F)(F)F)c2)CC1 | inactive: -22%
12 | CCc1ccccc1NC(=O)C1=C(C)C(=O)OC12CCCCCC2 | inactive: -10.4%
13 | COc1cc(CN2CCN(S(=O)(=O)c3ccccc3)CC2)cc(OC)c1O | inactive: -15.5%
14 | Fc1ccc(-c2noc3ncnc(NC4CCCCC4)c23)cc1 | inactive: -28.5%
15 | CC[C@]1(O)C[C@H]2CN(CCc3c([nH]c4ccccc34)[C@@](C(=O)OC)(c3cc4c(cc3OC)N(C=O)[C@H]3[C@@](O)(C(=O)OC)[C@H](OC(C)=O)[C@]5(CC)C=CCN6CC[C@]43[C@@H]65)C2)C1 | inactive: -10.6%
16 | COc1ccc(OC)c(NC(=O)c2cccn2-c2nnc(N3CCCCC3)s2)c1 | inactive: -20.1%
17 | COc1ccc(CNC(=O)c2cc3c(=O)oc4ccc(C)cc4c3s2)c(OC)c1 | inactive: -19.2%
18 | Cc1cccc(NC(=O)C(=O)NCC(c2ccc3c(c2)OCO3)N2CCN(C)CC2)c1C (centres undefined) | inactive: -7.86%
19 | COc1cc(NC(=O)CSc2ncc(S(=O)(=O)c3ccc(Br)cc3)c(=O)[nH]2)cc(OC)c1 | inactive: -6.79%
20 | Cc1c2cnn(CC(=O)NCCc3ccccc3)c(=O)c2c(C)n1Cc1ccccc1 | inactive: -10.5%
21 | COc1ccc(CNC(=O)c2ccc(NC(=O)N3CCCCc4ccccc43)cc2)cc1 | inactive: -8.16%
22 | CCCCOc1cccc(C(=O)N(Cc2sccc2C)C2CCS(=O)(=O)C2)c1 (centres undefined) | inactive: 1.79%
23 | CCN(CC)S(=O)(=O)c1ccc2oc(C(=O)N(C)Cc3ccccc3)c(C)c2c1 | inactive: -13.2%
24 | COc1cc(C2CC(=O)Nc3cc4c(cc32)OCCO4)cc(Br)c1OC (centres undefined) | inactive: -22.7%

Row | SMILES | activation
25 | Cc1cccc(N2CCN(C(=O)CCCCn3c(=O)[nH]c4ccsc4c3=O)CC2)c1C | inactive: -6.62%
26 | COc1ccc(Cn2c(=O)c3oc4ccccc4c3n(Cc3ccc(F)cc3)c2=O)cc1 | inactive: -3.45%
27 | Cc1cc(Nc2cccc(Cl)c2)nc2ccc(NC(=O)Cc3cccc(C(F)(F)F)c3)cc12 | inactive: -13%
28 | Cn1ccc2c(OCC(=O)Nc3cc(C(F)(F)F)ccc3Cl)cccc2c1=O | inactive: -0.309%
29 | COc1ccc(C2C=C(c3ccccc3)Nc3nc(NC(=O)/C=C/c4ccccc4)nn32)cc1 (centres undefined) | inactive: -10.9%
30 | CCOc1ccccc1NC(=O)CCn1nc(C)c(S(=O)(=O)N2CCCCC2)c1C | inactive: -0.885%
31 | O=C(NCCCc1ccccc1)C1CCN(C(=O)N2CCOc3ccc(Cl)cc32)CC1 | inactive: -12.5%
32 | CCc1ccc(NC(=O)CSC2=Nc3ccccc3C3=NC(CC(=O)NCc4ccccc4)C(=O)N23)cc1 (centres undefined) | inactive: -8.68%
33 | O=C(Cn1ncc2c3ccccc3n(Cc3cccc(Cl)c3)c2c1=O)NC1CCCCCC1 | inactive: -15.6%
34 | COC(=O)CCN(c1ccccc1)S(=O)(=O)c1cc(-c2cc(C)no2)ccc1OC | inactive: -9.89%
35 | CCN1CCSc2ccc(C(=O)NCc3ccc(OC)cc3)cc21 | inactive: -19.2%
36 | CCN(CC)S(=O)(=O)c1ccc2c(c1)c(=O)c(C(=O)N1CCN(c3ccc(F)cc3)CC1)cn2C | inactive: -11.3%
37 | COc1cccc(NC(=O)Cn2c(=O)n(-c3ccc(C)cc3)c(=O)c3ccc(C(=O)NCc4ccco4)cc32)c1 | inactive: -4.89%
38 | Cc1c(C(=O)Nc2cccc(Cl)c2)oc2ccc(S(=O)(=O)N(C)C3CCCCC3)cc12 | inactive: -13.2%
39 | CCOc1ccccc1N(CC(=O)N1CCc2ccccc2C1)S(=O)(=O)c1ccccc1 | inactive: -1.04%
40 | Cc1nc2ncnn2c(C)c1CCC(=O)NCc1ccccc1Cl | inactive: -9.82%
41 | O=C1CCSC2(C(=O)N(Cc3ccc(F)cc3)c3ccccc32)N1c1ccc(F)c(F)c1 (centres undefined) | inactive: 3.02%
42 | CCc1ccc(-c2nc(CS(=O)CC(=O)NCCc3ccc(Cl)cc3)c(C)o2)cc1 (centres undefined) | inactive: -11.2%
43 | CCOc1ccc2oc(=O)cc(CN3CCN(C(=O)c4ccc(F)cc4)CC3)c2c1 | inactive: -13.3%
44 | CCNC(=O)CC1C(=O)N(c2cccc(OC)c2)C(=O)N1Cc1ccc(OC)c(OC)c1 (centres undefined) | inactive: -8.5%
45 | COCCn1c(=N)c(C(=O)NC(C)c2ccccc2)cc2c(=O)n3cc(C)ccc3nc21 (centres undefined) | inactive: -19.4%
46 | COc1ccc(CCNC(=O)C(=O)NCC(c2ccco2)S(=O)(=O)c2ccc(F)cc2)cc1 (centres undefined) | inactive: -0.212%
47 | COc1ccccc1OCC(O)CO (centres undefined) | inactive: -11.1%
48 | CCOCc1ccccc1Nc1ncnc2onc(-c3ccc(Cl)cc3)c12 | inactive: -7.19%

Row | SMILES | activation
49 | CCC(Sc1nncn2c1cc1oc(C)cc12)C(=O)Nc1ccc(F)cc1 (centres undefined) | inactive: -12.8%
50 | CCc1cccc(NC(=O)C(c2ccccc2)N2Cc3ccccc3C2=O)c1 (centres undefined) | inactive: -20.5%
51 | CCOC(=O)c1scc(-c2ccccc2)c1S(=O)(=O)Nc1cc(OC)cc(OC)c1 | inactive: -7.08%
52 | CC(C)Oc1ccc(CNC(=O)CCCN2C(=O)c3cccnc3Oc3ccc(Cl)cc32)cc1 | inactive: -8.94%
53 | COc1ccc(CC(=O)N2CCc3cc(OC)c(OC)cc3C2COc2ccc(OC)cc2)cc1 (centres undefined) | inactive: -18.3%
54 | CCC(=O)N1CCc2cc(Br)cc(S(=O)(=O)Nc3ccc(C)cc3C)c21 | inactive: -4.2%
55 | CCN(C(=O)c1cc2c(s1)-c1c(C)cccc1OC2)c1ccccc1F | inactive: -6.18%
56 | Cc1ccc(C)c(NC(=O)c2cnn(-c3cccc(F)c3)c2C2CCN(C(=O)OC(C)(C)C)CC2)c1 | inactive: -12.1%
57 | CCOc1ccc(NS(=O)(=O)c2ccc(-c3cc(C)no3)s2)cc1 | inactive: 1.01%
58 | O=C(Cn1cc(SCc2c(F)cccc2Cl)c2ccccc21)N1CCCCCC1 | inactive: -7.67%
59 | COc1ccc(-n2nc(C(=O)N(C)c3cc(C)ccc3C)c3c4ccccc4n(C)c3c2=O)cc1Cl | inactive: -5.02%
60 | CCC(=O)N1c2ccccc2CC1C(=O)NCCc1ccccc1C (centres undefined) | inactive: -6.14%
61 | Cc1c(Cl)cccc1NC(=O)c1cnc2sc(N3CCOCC3)nn2c1=O | inactive: 16.4%
62 | CCN(c1ccccc1)S(=O)(=O)c1ccc(NC(=O)c2cc(=O)c3cc(C)cc(C)c3o2)cc1 | inactive: -9.89%
63 | COc1ccc(OC)c(CCNC(=O)CCCn2c(=O)c3cccn3c3ccccc32)c1 | inactive: -10.5%
64 | COc1ccc2oc(=O)cc(CN3CCN(Cc4ccccc4)CC3)c2c1 | inactive: -0.944%
65 | Cc1cc2ccccc2n1CCNC(=O)c1cccc(Br)c1 | inactive: -12.1%
66 | Cc1ccc(S(=O)(=O)Nc2ccc3c(c2)CCCN3C(=O)c2cccs2)cc1 | inactive: -46.4%
67 | O=C(CSc1cn(CC(=O)N2CCOCC2)c2ccccc12)Nc1ccccc1F | inactive: -16.2%
68 | O=C(Nc1ccc2nn(-c3ccccc3)nc2c1)c1cc2ccccc2o1 | inactive: -15.6%
69 | Cc1cc(C)c2c(CC(=O)N3CCN(c4cccc(Cl)c4)CC3)coc2c1 | inactive: -29.3%
70 | CCc1ccc(CNc2ncnc3c2nc2n3CCCC2)cc1 | inactive: -8.47%
71 | CCc1cccc(NC(=O)Cn2c(=O)ccc3cc(S(=O)(=O)N4CCC(C)CC4)ccc32)c1 | inactive: -5.34%
72 | CCOc1ccccc1N1CC(c2nc3ccccc3n2CCOc2ccccc2)CC1=O (centres undefined) | inactive: -3.87%

Row | SMILES | activation
73 | Cc1cccc(C)c1OCC(C)N (centres undefined) | inactive: -14.7%
74 | O=C(c1ccc2c(c1)N(Cc1ccc(Cl)cc1)C(=O)c1ccccc1S2=O)N1CCOCC1 (centres undefined) | inactive: -3.4%
75 | COc1ccc(C(CNC(=O)c2oc3ccc(Cl)cc3c2C)N2CCCCC2)cc1 (centres undefined) | inactive: -19.5%
76 | COc1cccc(N2CCN(C(=O)c3ccc(Cn4c(=O)[nH]c5cc(OC)c(OC)cc5c4=O)cc3)CC2)c1 | inactive: -4.96%
77 | CC1CCc2nc3ncn(Cc4ccccc4C#N)c(=O)c3cc2C1 (centres undefined) | inactive: -9.68%
78 | CCCCNc1nc2c(c(=O)n(Cc3ccc(Cl)cc3)c(=O)n2C)n1C | inactive: -9.42%
79 | COC(=O)c1ccc(CSc2nc3c([nH]c4ccccc43)c(=O)n2-c2ccc(Cl)cc2)o1 | inactive: -16.3%
80 | COc1cccc(CSc2nc3cc(C(=O)NC4CCCC4)ccc3c(=O)n2Cc2ccccc2)c1 | inactive: -12.3%
81 | Nc1nnc2c(n1)[nH]c1ccccc12 | inactive: -15.7%
82 | O=C1CC(c2nc3ccccc3[nH]2)CN1c1cccc(Cl)c1 (centres undefined) | inactive: -4.06%
83 | CCCC(=O)N(c1ccc2oc3c(c2c1)CCCC3)S(=O)(=O)c1cc(C)ccc1C | inactive: -11.1%
84 | Cc1cc(Cl)ccc1NC(=O)c1cc(S(=O)(=O)N2CCOCC2)cn1C | inactive: -2.23%
85 | COc1ccc(-n2cc(C(=O)NCc3ccccc3)c3ccccc3c2=O)cc1 | inactive: 1.54%
86 | O=C(CSc1nc2ccccc2n1Cc1ccccc1)N1CCN(c2ccc(F)cc2)CC1 | inactive: -3.66%
87 | COc1ccc(CN2CCN(Cc3cc(=O)oc4cc(C)ccc34)CC2)c(OC)c1OC | inactive: 12%
88 | Cc1ccc(C)c(N2CCN(C(c3ccccc3)c3nnc(-c4ccccc4F)o3)CC2)c1 (centres undefined) | inactive: -18.5%
89 | COc1ccc(CCCc2nnc(SCC(=O)Nc3ccc(C)cc3)o2)cc1 | inactive: -15.6%
90 | Cc1cccn2c(=O)c(/C=C(\C#N)c3nc4ccccc4[nH]3)c(Oc3ccc(C(C)(C)C)cc3)nc12 | inactive: -27.9%
91 | CCOc1ccc(-c2ccc(NS(=O)(=O)c3ccc(C)cc3)cc2)nn1 | inactive: -7.85%
92 | O=C(CCc1nc(-c2cccs2)no1)Nc1cccc([N+](=O)[O-])c1 | inactive: -18.4%
93 | Cc1ccc(OCC(=O)Nc2cc3nn(-c4ccccc4)nc3cc2C)cc1 | inactive: -8%
94 | Cc1ccsc1CN(C(=O)COc1ccc(Br)cc1)C1CCS(=O)(=O)C1 (centres undefined) | inactive: -14.2%
